Results reported in the supplement of paper PMC7826260.
The list shows a part of the results. Viral Rep nickase domains cut single-stranded DNA in vitro for 1 h at 37 °C with 3 µM enzyme; only the middle of the 90-letter strands is printed. Numbers give uncut DNA relative to the enzyme-free pool, as log2; the lower, the more was cut; hits are not called. Counts are relative to all reads, so uncut sequences can rise above 0 when many others are cut.

system: T1, Rep nickase domain of tomato golden mosaic virus; assay: uncleaved DNA left, log2 of reads against the no-enzyme library (log2 ratio); higher = less cleavage (more negative = more Rep cleavage of the k-mer); sequences stand for … in CTCGTCCG…ACCGGAGA
T1 sequence (Rep 1-124, printed without the tag): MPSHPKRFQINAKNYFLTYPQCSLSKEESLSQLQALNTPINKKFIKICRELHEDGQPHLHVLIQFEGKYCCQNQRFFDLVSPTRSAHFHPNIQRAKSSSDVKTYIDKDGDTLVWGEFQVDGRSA
Protocol: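 A pool of 90-nt single-stranded DNAs with seven random bases just before the constant AC of the nick site (name = the seven bases) was cut by 3 µM recombinant His6-SUMO-tagged Rep nickase domain (300 nM DNA, 50 mM HEPES pH 8.0, 50 mM NaCl, 1 mM MnCl2, 1 h, 37 °C, three replicates). Uncut DNA was amplified and sequenced.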

Sequence | uncleaved DNA left (log2)
TTCGTAC | -0.0875
TCTTCTC | -0.171
TGCCAGT | -0.154
TATGTCC | -0.141
GGGGCTG | -0.0404
CGATGCG | -0.157
GCGCGTA | 0.00683
TGCGTCT | -0.165
GCAAGGT | -0.0064
GAAAAGC | 0.0398
TTTGTAA | 0.139
GCTGGGA | 0.0937
TGATCTC | 0.0328
CAAGTCT | -0.228
TCGTATA | 0.0265
AAGTCTT | -0.208
GTGGGCA | 0.133
GCCATCG | 0.00238
ACCCAGG | 0.123
TCTATCG | -0.1

Sequence | uncleaved DNA left (log2)
AACTTAG | 0.0925
TCGGTGA | 0.00172
ACTTAAG | 0.0664
ATAGAAG | 0.0506
CACATCT | 0.00309
ACGTTTC | 0.0189
TCTGCCA | -0.179
GCACAAA | -0.0162
CATACAT | -0.116
TAACACA | 0.0756
GTGCTTG | -0.0266
CAATCGG | 0.0117
ATTCATG | -0.00124
CCATTCT | -0.0785
TCGTCAA | -0.14
CCTTAAT | -0.133
TCATGGG | 0.0745
TTCTCTA | -0.033
CTACGTA | -0.143
GCTGATA | 0.242
